Results as given in the supplement of paper PMC12582362.
Where a name gives a salt, the structure may show the parent alone. The whole screen tested about 1,500 compounds, of which about 30 (2%) showed activity.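 Rule for the calls: active = robust z-score below -2; a few such results were not called.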 Some of the results follow.

Tested on: optoTopBP1 Flp-In 293 T-REx (HEK293) cells
Assay: light-induced TopBP1 condensate (nuclear foci) count, plate-normalised robust z-score vs non-control wells; higher = more TopBP1 condensates (negative = condensation inhibitor), active = hit call of the paper
Settings: 10 µM; incubation time 2 h

Row | SMILES | light-induced TopBP1 condensate (z-score)
1 | COc1cc(N)c(Cl)cc1C(=O)NC1CCN(Cc2ccccc2)CC1 [Clebopride maleate] | inactive: -0.227
2 | CCN1CCCC1CNC(=O)c1cc(S(=O)(=O)CC)c(N)cc1OC (stereo not given) [Amisulpride] | inactive: -0.28
3 | Nc1nc(N)nc(-c2cc(Cl)ccc2Cl)n1 [Irsogladine maleate] | inactive: 0.8
4 | COc1c(O)cc2c(c1O)[C@@H]1O[C@H](CO)[C@@H](O)[C@H](O)[C@H]1OC2=O [Bergenin] | inactive: -0.755
5 | CC(C)[C@H]1CC[C@H](C(=O)N[C@H](Cc2ccccc2)C(=O)O)CC1 [Nateglinide] | inactive: -0.706
6 | COc1ccccc1OCCNCC(O)COc1cccc2[nH]c3ccccc3c12 (stereo not given) [Carvedilol] | inactive: -0.978
7 | CC(C)c1nc(CN(C)C(=O)N[C@H](C(=O)N[C@@H](Cc2ccccc2)C[C@H](O)[C@H](Cc2ccccc2)NC(=O)OCc2cncs2)C(C)C)cs1 [Ritonavir] | inactive: -1.47
8 | CC1CCc2cc(F)cc3c(=O)c(C(=O)O)cn1c23 (stereo not given) [Flumequine] | inactive: 0.294
9 | CCCCOc1ccc(OCCCN2CCOCC2)cc1 [Pramoxine hydrochloride] | inactive: -0.268
10 | COC(=O)Nc1nc2cc(C(=O)c3ccc(F)cc3)ccc2[nH]1 [Flubendazol] | active: -2.01
11 | CC(C)(C)NC(=O)[C@@H]1CN(Cc2cccnc2)CCN1C[C@@H](O)C[C@@H](Cc1ccccc1)C(=O)N[C@H]1c2ccccc2C[C@H]1O [Indinavir sulfate] | inactive: -0.338
12 | O=C(O[C@@H]1C[C@@H]2C[C@H]3C[C@H](C1)N2CC3=O)c1c[nH]c2ccccc12 [Dolasetron mesilate] | inactive: -0.474
13 | COc1ccc2cc1Oc1ccc(cc1)C[C@H]1c3c(cc4c(c3Oc3cc5c(cc3OC)CCN(C)[C@@H]5C2)OCO4)CCN1C [Cepharanthine] | inactive: 0.371
14 | Cc1c(OCC(F)(F)F)ccnc1C[S+]([O-])c1nc2ccccc2[nH]1 (stereo not given) [Lansoprazole] | inactive: 0.561
15 | Cn1c(=O)c2c(ncn2C)n(C)c1=O [Caffeine] | inactive: 0.602
16 | CN[C@@H]1CCc2[nH]c3ccc(C(N)=O)cc3c2C1 [Frovatriptan succinate] | inactive: -0.247
17 | CCCC(CCC)C(=O)O [Valproic acid] | inactive: 0.428
18 | CN(C)CCCC1(c2ccc(F)cc2)OCc2cc(C#N)ccc21 (stereo not given) [Citalopram Hydrobromide] | inactive: 0.761
19 | O=C(O)CNC(=O)C(CS)Cc1ccccc1 (stereo not given) [Thiorphan] | inactive: -0.677
20 | Cc1onc(-c2ccccc2)c1C(=O)N[C@@H]1C(=O)N2[C@@H]1SC(C)(C)[C@@H]2C(=O)O [Oxacillin sodium] | inactive: 0.606
21 | COc1cc(N)c(Cl)cc1C(=O)NC1CCN(CCCOc2ccc(F)cc2)CC1OC (stereo not given) [Cisapride] | inactive: 0.452
22 | CN(C)CCC(c1ccc(Cl)cc1)c1ccccn1 (stereo not given) [Chlorpheniramine maleate] | inactive: 1.09
23 | COC1=CC(=O)C[C@@H](C)[C@]12Oc1c(Cl)c(OC)cc(OC)c1C2=O [Griseofulvin] | inactive: -0.0214
24 | NCCc1cc[nH]n1 [Betazole hydrochloride] | inactive: 0.0766

Row | SMILES | light-induced TopBP1 condensate (z-score)
25 | CCCNC(C)C(=O)Nc1c(C)csc1C(=O)OC (stereo not given) [Articaine hydrochloride] | inactive: 1.26
26 | COc1cccc(N(C)C(=S)Oc2ccc3c(c2)CCCC3)n1 [Liranaftate] | inactive: 0.351
27 | Cc1c(NC(C)C)c(=O)n(-c2ccccc2)n1C [Isopyrin hydrochloride] | inactive: 0.627
28 | CC(C[N+](C)(C)C)OC(N)=O (stereo not given) [Bethanechol chloride] | inactive: -0.101
29 | COc1ccc2c(c1)C(=O)N(CCc1ccc(S(=O)(=O)NC(=O)NC3CCCCC3)cc1)C(=O)C2(C)C [Gliquidone] | inactive: -0.0398
30 | CN(C)CCN(Cc1ccc(Cl)cc1)c1ccccn1 [Chloropyramine hydrochloride] | inactive: -0.941
31 | NS(=O)(=O)Cc1noc2ccccc12 [Zonisamide] | inactive: 0.198
32 | Cc1cn([C@H]2C[C@H](N=[N+]=[N-])[C@@H](CO)O2)c(=O)[nH]c1=O [Zidovudine, AZT] | inactive: 0.554
33 | COc1ccc([C@@H]2Sc3ccccc3N(CCN(C)C)C(=O)[C@@H]2OC(C)=O)cc1 [Diltiazem hydrochloride] | inactive: 0.563
34 | Cc1ccc(C)c(OCCCC(C)(C)C(=O)O)c1 [Gemfibrozil] | inactive: 0.575
35 | O=C(O)C[C@H](O)C[C@H](O)/C=C/c1c(C2CC2)nc2ccccc2c1-c1ccc(F)cc1 [Pitavastatin calcium] | inactive: 0.947
36 | CNCCC=C1c2ccccc2C=Cc2ccccc21 [Norcyclobenzaprine] | inactive: -0.386
37 | CC1(C)S[C@@H]2[C@H](NC(=O)[C@H](N)c3ccccc3)C(=O)N2[C@H]1C(=O)OC1OC(=O)c2ccccc21 (stereo not given in full) [Talampicillin hydrochloride] | inactive: -0.173
38 | NC(=O)OCC(O)COc1ccc(Cl)cc1 (stereo not given) [Chlorphensin carbamate] | inactive: -0.00104
39 | COC(=O)CCc1ccc(OCC(O)CNC(C)C)cc1 (stereo not given) [Esmolol hydrochloride] | inactive: -0.544
40 | CN1C(C(=O)Nc2ccccn2)=C(O)c2ccccc2S1(=O)=O [Piroxicam] | inactive: 0.766
41 | COCCOC(=O)C1=C(C)NC(C)=C(C(=O)OC(C)C)C1c1cccc([N+](=O)[O-])c1 (stereo not given) [Nimodipine] | inactive: -0.998
42 | C[C@]12CCC(=O)C=C1C=C[C@@H]1[C@@H]2CC[C@@]2(C)[C@H]1CC[C@@]21CCC(=O)O1 [Canrenone] | inactive: 0.252
43 | CC(C)NC(=N)NC(=N)Nc1ccc(Cl)cc1 [Proguanil hydrochloride] | inactive: -0.256
44 | COc1ccc2c3c1O[C@H]1C[C@@H](O)C=C[C@@]31CCN(C)C2 [Galanthamine hydrobromide] | inactive: -1.02
45 | Cc1cc(C#N)cc(C)c1Oc1nc(Nc2ccc(C#N)cc2)nc(N)c1Br [Etravirine] | inactive: 0.362
46 | Cc1nnc(SCC2=C(C(=O)O)N3C(=O)[C@@H](NC(=O)Cn4cnnn4)[C@H]3SC2)s1 [Cefazolin sodium salt] | inactive: 0.18
47 | O=c1[nH]c(=O)n([C@H]2C[C@H](O)[C@@H](CO)O2)cc1C(F)(F)F [Trifluridine] | inactive: -0.311
48 | CC(=O)CC(c1ccc([N+](=O)[O-])cc1)c1c(O)c2ccccc2oc1=O (stereo not given) [Acenocoumarol] | inactive: 0.421

Row | SMILES | light-induced TopBP1 condensate (z-score)
49 | CCCCCCCCNC(C)C(O)c1ccc(SC(C)C)cc1 (stereo not given) [Suloctidil] | inactive: -0.0851
50 | S=c1[nH]cnc2nc[nH]c12 [Mercaptopurine] | inactive: -0.664
51 | CN(Cc1ccc(C(C)(C)C)cc1)Cc1cccc2ccccc12 [Butenafine Hydrochloride] | inactive: -0.115
52 | CC1(C)O[C@@H]2[C@@H](CO[C@@]3(COS(N)(=O)=O)OC(C)(C)O[C@@H]23)O1 [Topiramate] | inactive: 0.873
53 | CC[N+](CC)(CC(=O)Nc1c(C)cccc1C)Cc1ccccc1 [Denatonium benzoate] | inactive: 0.105
54 | COc1cc(NS(=O)(=O)c2ccc(N)cc2)nc(OC)n1 [Sulfadimethoxine] | inactive: 0.224
55 | CN(C)c1cc(NC(=O)CNC(C)(C)C)c(O)c2c1C[C@H]1C[C@H]3[C@H](N(C)C)C(O)=C(C(N)=O)C(=O)[C@@]3(O)C(O)=C1C2=O [Tigecycline] | inactive: 0.904
56 | Cc1cccc(Nc2ccncc2S(=O)(=O)NC(=O)NC(C)C)c1 [Torsemide] | inactive: 0.675
57 | NC(=O)N1c2ccccc2CC(=O)c2ccccc21 [Oxcarbazepine] | inactive: 0.996
58 | CC(C)Cn1cnc2c(N)nc3ccccc3c21 [Imiquimod] | inactive: -0.358
59 | CC(C)(C)NCC(O)COc1cccc2c1CC(O)C(O)C2 (stereo not given) [Nadolol] | inactive: 1.12
60 | CCOCCn1c(N2CCCN(C)CC2)nc2ccccc21 [Emedastine] | inactive: -0.971
61 | Cc1cccn2c(=O)c(-c3nnn[nH]3)cnc12 [Pemirolast potassium] | inactive: 0.448
62 | CC[C@H](C)C(=O)O[C@H]1C[C@H](O)C=C2C=C[C@H](C)[C@H](CC[C@@H](O)C[C@@H](O)CC(=O)O)[C@H]21 [Pravastatin] | inactive: -0.451
63 | CC1=C(C(=O)O)N2C(=O)[C@@H](NC(=O)[C@H](N)c3ccccc3)[C@H]2SC1 [Cephalexin monohydrate] | inactive: -0.61
64 | Cc1nccn1CC1CCc2c(c3ccccc3n2C)C1=O (stereo not given) [Ondansetron Hydrochloride] | inactive: 1.05
65 | CC(=O)NC[C@H]1CN(c2ccc(N3CCOCC3)c(F)c2)C(=O)O1 [Linezolid] | inactive: 0.569
66 | COc1ccc2c(c1)c(CC(=O)OCC(=O)O)c(C)n2C(=O)c1ccc(Cl)cc1 [Acemetacin] | inactive: -0.239
67 | Nc1nnc(-c2cccc(Cl)c2Cl)c(N)n1 [Lamotrigine] | inactive: -0.281
68 | CC[C@@]1(O)C(=O)OCc2c1cc1n(c2=O)Cc2cc3c(CN(C)C)c(O)ccc3nc2-1 [Topotecan] | active: -2.31
69 | Nc1nc(=O)[nH]cc1F [Flucytosine] | inactive: -0.698
70 | Clc1cc(Cl)c(OCC#CI)cc1Cl [Haloprogin] | inactive: -0.754
